Assay results taken from PMC4336329 (PLoS ONE, 2015).
In all, about 310,000 compounds went through this assay and about 2,200 (0.71%) showed an effect of 50% or more. The effect is printed as a negative number. Some of the results follow.

Each compound was assayed against human ether-à-go-go-related gene (hERG) potassium channel (human, UniProt Q12809) (assay: primary screen, population patch clamp on CHO cells stably expressing hERG).
Chain of human ether-à-go-go-related gene (hERG) potassium channel (Q12809 whole entry, looked up): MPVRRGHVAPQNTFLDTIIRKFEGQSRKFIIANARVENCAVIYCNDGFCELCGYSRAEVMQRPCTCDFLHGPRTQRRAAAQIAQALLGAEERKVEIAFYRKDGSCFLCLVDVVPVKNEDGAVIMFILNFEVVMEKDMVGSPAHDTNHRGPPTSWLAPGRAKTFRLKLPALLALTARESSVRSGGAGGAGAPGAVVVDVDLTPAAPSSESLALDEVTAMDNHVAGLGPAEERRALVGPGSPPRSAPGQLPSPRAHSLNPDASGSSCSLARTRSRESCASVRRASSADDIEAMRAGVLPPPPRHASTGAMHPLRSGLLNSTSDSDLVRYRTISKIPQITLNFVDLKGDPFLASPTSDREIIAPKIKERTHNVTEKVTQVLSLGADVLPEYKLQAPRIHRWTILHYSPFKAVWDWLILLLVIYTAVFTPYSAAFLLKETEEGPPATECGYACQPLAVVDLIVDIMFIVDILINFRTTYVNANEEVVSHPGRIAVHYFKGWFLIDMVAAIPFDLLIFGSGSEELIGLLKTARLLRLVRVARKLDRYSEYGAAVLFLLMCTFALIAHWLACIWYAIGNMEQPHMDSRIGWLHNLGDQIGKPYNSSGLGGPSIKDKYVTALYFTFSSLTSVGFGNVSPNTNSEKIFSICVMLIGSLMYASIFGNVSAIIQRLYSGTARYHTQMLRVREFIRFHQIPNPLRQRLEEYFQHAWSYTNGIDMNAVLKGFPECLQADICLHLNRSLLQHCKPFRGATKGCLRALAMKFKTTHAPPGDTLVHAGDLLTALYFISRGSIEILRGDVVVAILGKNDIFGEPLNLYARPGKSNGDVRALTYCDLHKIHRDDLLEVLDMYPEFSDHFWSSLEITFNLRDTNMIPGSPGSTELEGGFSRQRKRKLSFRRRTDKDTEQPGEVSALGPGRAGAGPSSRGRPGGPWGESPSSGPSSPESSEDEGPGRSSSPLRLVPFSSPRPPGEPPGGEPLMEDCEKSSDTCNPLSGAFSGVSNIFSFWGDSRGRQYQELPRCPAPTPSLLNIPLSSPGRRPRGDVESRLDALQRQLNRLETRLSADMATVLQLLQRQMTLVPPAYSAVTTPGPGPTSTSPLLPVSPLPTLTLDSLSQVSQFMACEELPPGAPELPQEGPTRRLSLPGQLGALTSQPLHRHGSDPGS

In order of rising “hERG current change (%, negative = inhibition) at 1uM” value:
1. COCCNc1nc(SCC(=O)N2CCN(c3ccccc3)CC2)nc2ccccc12  -94.4%
2. CCOC(=O)c1c(NC(=S)Nc2ccccc2)sc2c1CCN(CC)C2  -80.2%
3. Cc1nc(SCC(=O)N2CCN(C(=O)c3ccco3)CC2)c2c(C)c(C)sc2n1  -43.9%
4. CCN1CCCC1CN(Cc1cc2ccc(C)cc2[nH]c1=O)C(=S)Nc1ccc(OC)cc1OC (centres unmarked)  -34.7%
5. CCn1c(=Nc2ccc(N3CCOCC3)cc2)ccc2ccccc21  -25.2%
6. O=C(Nc1ccc(CN2CCCCC2)cc1)c1ccc2c(c1)OCO2  -15.8%
7. O=C(NCc1cccc(CNC(=O)C(=O)NCc2ccco2)c1)C(=O)NCc1ccco1  -12.3%
8. CCN(CC)C(=O)c1c(NC(=O)c2ccccc2)sc(C)c1C  -5.68%
9. O=C(CN1C(=O)S/C(=C\c2cccc(Cl)c2)C1=O)NCCCn1ccnc1  -5.38%
10. CCC(CC)COC(=O)C(C#N)c1nc2ccccc2nc1N1CCN(CC)CC1 (centres unmarked)  -5.3%
11. O=C(COC(=O)Cn1cnc2ccccc2c1=O)Nc1ccc(Cl)cc1  -5.11%
12. Cc1ccc(-n2c(CNc3ccc(F)cc3)nnc2SCC(=O)N2CCOCC2)cc1  -4.09%
13. COc1ccc(-c2cc(C(F)(F)F)c(C#N)c(SCC(=O)Nc3ccc(C)cc3)n2)cc1  -3.89%
14. COc1ccc(CNCc2cn(-c3cccc(F)c3)nc2-c2ccc(C)o2)cc1  -3.51%
15. Cc1cnc(C(=O)OC(C)C(=O)c2c(C)[nH]c3ccccc23)cn1 (centres unmarked)  -2.75%
16. Cc1ccccc1Nc1nc(N)nc(CSc2nnc3ccccn23)n1  -2.15%
17. Cc1ccc(C(C)C)c(OCC(=O)Nc2ccc(N3CCN(S(C)(=O)=O)CC3)cc2)c1  -1.99%
18. O=C(CN1CCN(c2nc(-c3ccccc3)cs2)CC1)NCc1ccc2c(c1)OCO2  -1.94%
19. Cc1c(C(=O)N(Cc2ccc(N(C)C)cc2)CC2CCCO2)oc2ccccc12 (centres unmarked)  -1.65%
20. Cc1nc2ccccn2c1P(=O)(N1CCCCC1)N1CCCCC1  -1.27%
21. COc1cccc(COC(=O)C2CC(=O)N(Cc3ccc(C)cc3)C2)c1OC (centres unmarked)  1.74%
22. CN(CC(=O)Nc1cccc(F)c1)C(=O)CCCc1c[nH]c2ccccc12  2.54%
23. COC1=C(Nc2ccc(O)cc2)C(=O)c2ccccc2C1=O  2.55%
24. COc1ccccc1OCCNC(=O)c1ccc2c(c1)CCC2  3.02%
25. O=C(COc1coc(CN2CCc3ccccc32)cc1=O)N1CCCCC1  3.29%
26. Cc1nc(CS(=O)(=O)c2ccc(Cl)cc2)cc(Sc2ccc(Cl)cc2)n1  3.33%
27. Cc1ccc(/C=C2/Sc3ccccc3N(CC(=O)NCC3CCCO3)C2=O)cc1 (centres unmarked)  3.89%
28. CCN(CC)S(=O)(=O)c1ccc(/C=C/C(=O)Nc2ccc(N3CCOCC3)cc2)cc1  3.95%
29. CN1C(=O)N(C)C(=O)C2(Cc3cc(NC(=O)c4ccc(F)cc4)ccc3N3CCCC32)C1=O (centres unmarked)  4.33%
30. COc1ccc(C(C[N+](=O)[O-])C2(c3ccc(OC)c(OC)c3)C(=O)c3ccccc3C2=O)cc1 (centres unmarked)  4.39%
31. Cc1nc(N2CCN(C)CC2)c2c(C)c(C(=O)Nc3ccc(C)c(F)c3)sc2n1  4.92%
32. CC(C)(C)OC(=O)N1CCC[C@H]1C(=O)N/N=C/c1ccc2ncccc2c1  5.82%
33. CC(C)OP(=O)(OC(C)C)C(Nc1ccccc1)c1ccc2c(c1)OCO2 (centres unmarked)  6.83%
34. C=CCSC1=N/C(=C\c2ccc(C)o2)C(=O)S1  7.01%
35. O=C(CSc1cn(CC(=O)N2CCCC2)c2ccccc12)NCC1CCCO1 (centres unmarked)  7.02%
36. Cc1nc2ccccc2nc1OCc1ccccc1  7.25%
37. O=C(Cc1ccccc1)N/N=C/c1ccc2c(c1)OCO2  7.35%
38. CC(C)CNC(=O)c1cc([N+](=O)[O-])ccc1N1CCCCC1  7.4%
39. O=C(CSc1nnc(Cc2cc(=O)[nH]c(=O)[nH]2)n1-c1ccc(F)cc1)NC1CCCC1  7.42%
40. O=C(NCCCCc1ccccc1)C1CC(c2cccc(F)c2)=NO1 (centres unmarked)  7.53%
41. Cc1ccc(-n2ncc(C(=O)NC3CC3)c2C2CCN(C(=O)OC(C)(C)C)CC2)c(C)c1  7.78%
42. O=C1c2ccccc2C(=O)N1OCc1c(F)cccc1Cl  7.8%
43. CCn1c(=O)cc(OCC(=O)Nc2ccccc2C#N)c2ccccc21  7.97%
44. CNC(=O)Nc1cccc(C(F)(F)F)c1  8.08%
45. Fc1ccccc1/C=N/Nc1cc(N2CCCCC2)ncn1  8.39%
46. Cc1onc(-c2ccccc2)c1C(=O)NCCc1ccncc1  8.66%
47. FC(F)(F)c1nc(Sc2ncccc2C(F)(F)F)n[nH]1  8.97%
48. CCOc1cc(C(=S)N2CCOCC2)ccc1OC(=O)c1ccc(C)cc1  9.09%
49. COc1ccc(-c2nnc(SCC(=O)N3CCN(c4ccccc4)CC3)o2)cc1OC  9.13%
50. COc1cccc(CN2CCN(C(=S)NCc3ccc(Cl)cc3)CC2)c1  9.94%
51. CC(=O)c1ccc(OC(=O)N(C)c2ccccc2)cc1  10%
52. C/C(=N/NC(=O)c1cc2ccccc2cc1O)c1ccco1  10.1%
53. S=c1[nH]nc(COc2ccccc2)n1/N=C/c1ccccc1Cl  10.4%
54. COc1ccc(C(=O)NC(=S)Nc2ccc(N3CCOCC3)c(Cl)c2)cc1[N+](=O)[O-]  10.6%
55. CCCOP(=O)(c1ccccc1)c1ccccc1  10.7%
56. O=C(O)c1cccc(N2C(=O)c3cccc4c(Cl)ccc(c34)C2=O)c1  11.1%
57. Cc1ccc(OCCCC(=O)N2CCOCC2)c(C)c1  11.2%
58. CC(=O)Nc1cc(NC(C)=O)cc(C(=O)OCC(=O)Nc2ccc(S(=O)(=O)NC3=NCCCCC3)cc2)c1  11.4%
59. CCOC(=O)N1CCN(CC(O)COc2ccc3c(c2)CCC3)CC1.Cl (centres unmarked)  11.5%
60. Cc1sc2nc(C(C)C)nc(SCC(=O)NCc3ccco3)c2c1C  11.6%
61. CCOC(=O)c1ccc2nc(NC(C)=O)sc2c1  11.7%
62. CC1/C(=N/O)CC(c2ccccc2)NC1c1ccccc1 (centres unmarked)  11.7%
63. CC12CCCCC1NS(=O)(=O)OC2 (centres unmarked)  12%
64. COC(C/C=C\C(=O)[C@@H](C)OCc1ccccc1)OC  12%
65. Cc1nn(Cc2ccccc2Cl)c(C)c1C(=O)OCC(=O)NC1CCS(=O)(=O)C1 (centres unmarked)  12.1%
66. Cn1nccc1NS(=O)(=O)c1ccc(F)cc1  12.3%
67. COC(=O)c1ccc(CNC(=O)Cn2nnnc2CN(C)C(C)C)cc1  12.5%
68. CC1CCC(C(C)C)C2=C1C(C#N)(C#N)C(C#N)(C#N)C(c1ccccc1)N2 (centres unmarked)  12.6%
69. CCOC(=O)c1ccc(S(=O)(=O)NCCN(CC)CC)cc1.Cl  12.7%
70. O=C(CNC(=O)c1cccs1)OCC(=O)c1ccc2ccccc2c1  12.9%
71. CCOc1ccccc1N1C(=O)CC(=O)NC1=O  12.9%
72. CCCCNC(=O)N(C)c1nncnc1C(=O)NC  13.1%
73. O=C(N1CCc2[nH]c3ccccc3c2C1)C(F)(F)F  13.1%
74. CC1(C)CC(=O)C(N=Nc2ccc(Cl)cc2)=C(O)C1  13.3%
75. COc1ccc(NC(=S)NCc2ccc(F)cc2)c(OC)c1  13.5%
76. Cn1c(-c2cc(Cl)ccc2O)nc2c1c(=O)[nH]c(=O)n2Cc1ccccc1  13.7%
77. COCC(=O)N(Cc1cc2ccc(C)cc2[nH]c1=O)c1ccc(C)cc1C  13.9%
78. Fc1ccc(CSc2nnc(Cc3sc(-c4ccccc4)nc3-c3ccccc3)o2)cc1  13.9%
79. Cn1cc(CCC(=O)NCc2ccc(Cl)cc2)c2ccccc21  14.1%
80. O=C(c1ccc2nc(Cc3ccccc3F)oc2c1)N1CC[C@H](O)C1  14.2%
81. NNC(=O)c1ccc(-c2ccccc2F)cc1  14.8%
82. CCCS(=O)(=O)c1nc(C)cc(C)c1S(C)(=O)=O  15.1%
83. Nc1nc(-c2ccccc2)cc(-c2ccccc2)n1  15.3%
84. N=C1/C(=C/c2cccn2-c2cccc([N+](=O)[O-])c2)C(=O)N=C2SC=CN12  16.5%
85. COc1ccc2c(C)cc(SCC(=O)NCCN3C(=O)CSC3=O)nc2c1  17.6%
86. Cc1nc(SCc2ccc(Cl)c(Cl)c2)n[nH]1  18.1%
87. Cc1ccc(CN2CC(C(=O)Nc3ccc(S(=O)(=O)Nc4cc(C)nc(C)n4)cc3)CC2=O)cc1 (centres unmarked)  18.2%
88. CC(Cn1cncn1)C(=O)N1CCN(S(=O)(=O)c2ccccc2)CC1 (centres unmarked)  20.4%
89. O=C(COc1coc(CN2CCN(c3ccccc3F)CC2)cc1=O)Nc1ccccc1  20.4%
